Hit rate of the full screen: of about 310,000 compounds, about 14,000 (4.5%) showed an effect of 50% or more. Effects have a minus sign here. Some of the results follow.
These compounds were tested against human ether-à-go-go-related gene (hERG) potassium channel (human, UniProt Q12809) (assay: primary screen, population patch clamp on CHO cells stably expressing hERG).
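Also: peak tail current of the secondary pulse compared with the same well before compound.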

Chain of human ether-à-go-go-related gene (hERG) potassium channel (Q12809 whole entry, looked up): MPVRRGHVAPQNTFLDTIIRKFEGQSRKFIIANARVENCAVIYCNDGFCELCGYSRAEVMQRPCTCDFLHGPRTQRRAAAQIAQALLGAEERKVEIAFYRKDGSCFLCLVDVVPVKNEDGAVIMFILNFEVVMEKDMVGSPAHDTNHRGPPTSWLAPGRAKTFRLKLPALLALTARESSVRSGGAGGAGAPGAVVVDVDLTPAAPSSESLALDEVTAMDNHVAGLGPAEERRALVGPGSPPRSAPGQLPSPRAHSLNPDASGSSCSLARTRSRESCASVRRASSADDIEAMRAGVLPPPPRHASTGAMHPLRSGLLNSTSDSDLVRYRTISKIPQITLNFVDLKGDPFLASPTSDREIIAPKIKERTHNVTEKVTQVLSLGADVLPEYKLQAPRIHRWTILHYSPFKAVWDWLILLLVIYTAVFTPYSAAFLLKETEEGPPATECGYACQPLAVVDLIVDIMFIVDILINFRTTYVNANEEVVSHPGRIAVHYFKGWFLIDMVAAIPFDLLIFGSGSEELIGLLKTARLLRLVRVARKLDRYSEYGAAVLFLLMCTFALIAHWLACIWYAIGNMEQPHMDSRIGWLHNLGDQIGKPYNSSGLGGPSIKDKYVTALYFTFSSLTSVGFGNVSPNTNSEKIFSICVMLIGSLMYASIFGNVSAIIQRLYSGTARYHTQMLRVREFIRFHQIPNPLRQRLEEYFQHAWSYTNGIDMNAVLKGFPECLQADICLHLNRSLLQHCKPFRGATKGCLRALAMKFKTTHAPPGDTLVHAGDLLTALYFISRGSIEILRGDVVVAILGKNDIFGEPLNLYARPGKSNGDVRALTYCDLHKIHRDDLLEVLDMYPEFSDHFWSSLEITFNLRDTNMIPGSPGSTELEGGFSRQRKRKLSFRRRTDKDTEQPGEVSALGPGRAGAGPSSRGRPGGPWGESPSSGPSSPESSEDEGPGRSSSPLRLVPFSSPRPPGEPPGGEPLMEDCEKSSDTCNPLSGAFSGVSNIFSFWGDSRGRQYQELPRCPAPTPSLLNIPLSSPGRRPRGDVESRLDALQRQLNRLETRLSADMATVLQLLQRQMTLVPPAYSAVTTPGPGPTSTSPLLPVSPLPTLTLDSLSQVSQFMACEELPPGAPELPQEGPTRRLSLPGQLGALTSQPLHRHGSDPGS

SMILES	hERG current change (%, negative = inhibition) at 10uM [%]
CCOc1ncccc1C(=O)N=C1SCCN1C(=O)c1cccnc1OCC	4.52
Cc1c(C(=O)Nc2ccc3oc(-c4cccnc4)nc3c2)oc2ccccc12	-16.8
CC(C)NCC#CCOc1ccc(Cl)cc1.O=C(O)C(=O)O	-22.8
CCCCOc1ccc(NC(=O)CN2CCN(Cc3ccccc3)CC2)cc1	-49.4
Cc1ccccc1-n1nc(C)c(N=O)c1N	23.5
Cc1cc(N2CCN(c3cccc(C(F)(F)F)c3)CC2)n2ncnc2n1	-37
O=C(CSc1n[nH]c(-c2ccccc2)n1)N1CCCC1	38.6
O=C(CCCN=C1NS(=O)(=O)c2ccccc21)Nc1ccc(Cl)cc1	-26.3
O=C(OCc1ccccc1C(F)(F)F)c1cc([N+](=O)[O-])ccc1N1CCOCC1	11.2
COc1ccc(OC)c(S(=O)(=O)N2CCC(C(=O)NCc3ccncc3)CC2)c1	16.4
CN(C)S(=O)(=O)c1ccc(=S)[nH]c1	24.6
COc1ccc(S(=O)(=O)Nc2cc(C)cc(C)n2)c2ccccc12	3.95
C/C(Cn1nc([N+](=O)[O-])cc1C)=N\NC(=O)COc1c(Cl)cc(Cl)cc1Cl	-68
CCOC(=O)C1(Cc2cccc(F)c2)CCN(Cc2ccon2)CC1	3.48
COc1ccccc1NC(=O)COC(=O)Cc1ccc(S(=O)(=O)N2CCCCC2)s1	-2.18
O=C(CN(C(=O)c1csnn1)c1ccccc1F)NCc1ccc2c(c1)OCO2	-12.2
CCCc1[nH]nc2c1C(c1cccc(OC(=O)c3ccco3)c1)C(C#N)=C(N)O2 (stereo not shown)	14.9
C=CCn1c(O)c(N=NC(=S)Nc2cccc(OC)c2)c2ccccc21	-0.894
COc1ccc(Cn2nnnc2C(c2ccccc2OC)N2CCC(C(N)=O)CC2)cc1 (stereo not shown)	-8.1
CCn1cc(C(=O)Nc2ccc(OC)c(OC)c2)c2cc(OC)c(OC)cc2c1=O	3.63
CSc1nncc(/C(C)=N\Nc2cccc(C)c2)n1	6.47
CCOC(=O)c1cnc2c(ccc3ccccc32)c1NCCO	-26.4

SMILES	hERG current change (%, negative = inhibition) at 10uM [%]
Cc1cnc(C(=O)Nc2ccc(C(=O)N3CCCCC3)cc2)cn1	1.54
CC1CCc2c(sc3nc(CN4CCOCC4)nc(NS(=O)(=O)c4cccc([N+](=O)[O-])c4)c23)C1 (stereo not shown)	-28.9
O=C(Nc1cccc(-c2cn3ccccc3n2)c1)C1CC1	-31.1
Cc1ccccc1Cn1c(=O)n(Cc2ccco2)c(=O)c2ccccc21	2.24
CN(C(=O)CSc1nc2ccc([N+](=O)[O-])cc2s1)C1CCS(=O)(=O)C1 (stereo not shown)	-55.9
COc1ccc(N2CCN(C(=O)C3=NNC(=O)CC3)CC2)cc1	-13.6
COc1ccc(-c2cc3ccccc3n2CC(O)CN2CCC(C)CC2)cc1.O=C(O)C(=O)O (stereo not shown)	-77
O=C(NC(=S)Nc1ccccc1N1CCCC1)c1cccs1	7.27
CNC(=O)c1ccc(CNC(=O)OCC(F)(F)F)cc1	-1.42
CCCn1c(N)c(N(CCOC)C(=O)CSCC(=O)Nc2ccc(C)cc2)c(=O)[nH]c1=O	-1.05
CCOC(=O)CSc1nnc(Cc2ccccc2)n1-c1cccc(Cl)c1	-37.3
Cc1cc(N)ccc1N=Nc1c(C)n(C)n(-c2ccccc2)c1=O	-5.57
COc1ccc(OC)c(C2C3=C(CCCC3=O)NC3=C2C(=O)CCC3)c1	2.04
CC(/C=N/Nc1nc(C)cc(=O)[nH]1)=C\c1ccccc1	-41
CCOc1cc(S(=O)(=O)N2CCN(S(=O)(=O)CC)CC2)c(OCC)cc1-n1cnnn1	13.2
CC(C)(C)SCCNC(=O)CSCc1ccc([N+](=O)[O-])cc1	-63.1
NC(=O)Cn1cc(/C=N\NS(=O)(=O)c2ccc(Cl)cc2)c2ccccc21	10.6
C=CCOc1c(Br)cc(/C=N/n2c(CC)n[nH]c2=S)cc1Br	2.36
Cc1cc(C)n(C(=O)N(c2ccccc2)c2ccccc2)n1	9.46
Cc1ccc(OCC(=O)N/N=C\c2ccc(O)c([N+](=O)[O-])c2)c([N+](=O)[O-])c1	11.4
CCCC(=O)Nc1nc2ccc(NC(=O)c3ccc(Br)o3)cc2s1	1.78
CCOC(=O)N1CCN(C(=O)COC(=O)c2cc(Cl)c(O)c(Cl)c2)CC1	29.4

SMILES	hERG current change (%, negative = inhibition) at 10uM [%]
Cc1cc(=O)oc2cc(NC(=O)c3cccc(F)c3)ccc12	5.32
COc1ccc(NC(=O)CC2SC(N)=NC2=O)c([N+](=O)[O-])c1 (stereo not shown)	19.9
CCSc1n[nH]c2nc3c(c(=O)n12)C1(CCCC1)Cc1ccccc1-3	22.5
O=C(NCc1ccc(Cl)cc1)C1CCCN(S(=O)(=O)c2cnc[nH]2)C1 (stereo not shown)	9.36
C/C(=N\NC(=O)c1cccnc1)c1ccc(Br)cc1	-11.1
CC(C)CN(C(=O)CSc1nncn1C)C1CCS(=O)(=O)C1 (stereo not shown)	15
CNC(=O)NC(=O)C(OC(=O)c1cccc(S(=O)(=O)N2CCCCC2)c1)c1ccccc1 (stereo not shown)	-1.58
Cc1cccc(C)c1OCC(O)CN1CCN(c2ccccn2)CC1 (stereo not shown)	-35.5
COc1ccc(N2C(=O)CC(NCc3cccc(F)c3)C2=O)cc1 (stereo not shown)	-13.3
COc1ccccc1C(=O)NCC(=O)OCC(=O)Nc1cccc(S(=O)(=O)N2CCCCCC2)c1	-16.9
CC1=C(C(=O)N(C)C)C(c2cccc(Cl)c2)NC(=O)N1 (stereo not shown)	2.6
COc1ccc(C[C@@H]2CN3C(=NC[C@@H]3C)N2C[C@H](C)NC(=O)c2ccc(C)c(Br)c2)cc1	-74.8
COc1ccccc1N(CC(=O)NC1CCCC1)C(=O)c1csnn1	4.43
O=C(CN1C(=O)c2ccccc2C1=O)NCc1ccc(F)cc1	24.3
Nc1ccc(Br)cc1C(=O)O	-8.28
Cl.O=C(O)/C=C/c1ccc(Cn2ccnc2)cc1	-9.79
COC(=O)CNC(=O)CSc1nc2sc(-c3ccccc3)cc2c(=O)n1-c1ccccc1	0.814
O=C1C=C(NCc2ccc(Cl)c(Cl)c2)C2(CCCCC2)O1	16.4
Cc1ccc(NC(=O)CSc2nc(CSc3ccc(C)cc3)cc(=O)[nH]2)cc1	9.15
O=C(Nc1ccccc1C(=O)N1CCCC1)c1cccc(S(=O)(=O)N2CCCCCC2)c1	-39.3
Cc1ccc(Nc2nc(NCC3CCCO3)nc(N)c2[N+](=O)[O-])cc1 (stereo not shown)	19.6
Cc1cc2cc(CN3C(=O)c4ccccc4C3=O)ccc2[nH]1	11.2

SMILES	hERG current change (%, negative = inhibition) at 10uM [%]
Cc1ccc(/C=C/C(=O)N2CCC(Cc3ccccc3)CC2)cc1	17.9
Cc1cc(C(=O)N2CC=C(c3ccccc3)CC2)c2ccccc2n1	-52.9
CCn1ccc(C(=O)Nc2ccccc2SC)n1	-37.9
COc1ccc(NC2CS(=O)(=O)CC2OC(=O)c2ccc(F)cc2)cc1 (stereo not shown)	3.68
O=C(Nc1ccccc1)OCN1C(=O)c2ccccc2C1=O	-15.7
CC(=O)N1N=C(c2ccc(C(C)(C)C)cc2)OC1(C)C	1.81
C=CCOC(=O)C1=C(C)NC(=O)NC1/C=C/c1ccccc1OC (stereo not shown)	15.2
Cc1ccc(Cc2c[nH]c(=S)s2)cc1	16.6
CCCc1n[nH]c(=O)c2c1nnn2Cc1ccccc1	4.86
O=C(c1ccc(Cl)cc1Cl)N1CCc2ccccc21	-1.6
CC(C)n1cnc2c(NCc3ccccc3)nc(NCc3ccccc3)nc21	0.281
Cc1cccc(NC(=O)COc2ccc(Br)cc2/C=N/O)c1	8.31
CCOC(=O)c1[nH]c2ccc(OC)cc2c1NC(=O)N1CCOCC1	12.9
COc1ccc(NC(=S)Nc2ccc(F)cc2)cc1	16.2
CSCC[C@H](NC(=O)[C@H](Cc1ccccc1)n1c(=O)[nH]c2ccccc2c1=O)C(=O)N1CCC[C@H]1C(=O)O	-1.94
O=C(NC(=S)N1CCN(c2ccc(F)cc2)CC1)C12CC3CC(CC(C3)C1)C2	1.26
O=C(CNC(=O)c1ccccc1F)N/N=C/c1ccc2c(c1)OCO2	15.6
CCOC(=O)c1c(C)nc2c(c1-c1cc(OC)ccc1OC)C(=O)CC(C)(C)C2	8.68
CCOc1cc(/C=N/Nc2cc(C)nc3ccc(C)cc23)ccc1O	11.1
Clc1ccc(-c2nnc(CSc3nnc(-c4cccs4)n3Cc3ccccc3)o2)cc1	-47.4
COc1ccc(NC(=O)CN(C)C(=O)c2ccc(-c3ccccc3Cl)o2)cc1	-5.15
CC(C)c1ccc(/C=N/NC(=O)CC(=O)NCc2ccccc2)cc1	23.2
